Test results from the RNAGym collection of RNA variant scans (doi:10.7554/elife.90254).
Read counts are not given, so values of variants with three or more changes are uncertain.

B1: OR4K15 (parent)
chain: GUUAACGGUCAUAGGCCAUGGAAACUAGGAGCACCAUUUCGCUGCCAGUGAAGAAAUGAACAAAGAAAAUCUGGGCCAGGCAGGCAUCAAAAGAAAUAGUCUUGCGCUCAACCAGAAAGUCUGUAAUCAUUUUAAGGGUA

Variants of: B1
Test: self-cleavage, relative activity (ratio to wild type); higher = more cleavage; in vitro, sequencing; the parent is a self-cleaving ribozyme
With U2A A30U A47G A90G the self-cleavage was 0.64. With U26C U43C A98G U122C the self-cleavage was 0.16. Work on A22G U124A A140G yielded a self-cleavage of 0.96. For U37A A62C A82G A95G A117G A125G A129G, the self-cleavage was 0.03. A33U C112A U122G gave a self-cleavage of 0.01. In the case of A55G A118G A135U, the self-cleavage is reported as 0.44. A66G A98G U103C A118G showed a self-cleavage of 0.03. For A36U A55U A94G A117G, the self-cleavage was 1.33. G29U A47G A110G U132C gave a self-cleavage of 0.1. With A55G A94G A95U the self-cleavage was 1.92. Variant U39C A55G U124C has a self-cleavage of 1.72. Variant U19C U49C U133C has a self-cleavage of 1.82. For U37C A62U U72A A91G U97C, the self-cleavage was 0.04. Work on U38C A51G A92G yielded a self-cleavage of 1.4. For U19A A22U U43A U49A A67G, the self-cleavage was 0.68. U2A A69G U103C C121U gave a self-cleavage of 1.63. Work on A60G A67G A82U U87G yielded a self-cleavage of 0.12. U2C U38C U57A gave a self-cleavage of 1.04. With A51G U70C U130C the self-cleavage was 0.21. Work on U12C A22G A30G A62G yielded a self-cleavage of 1.32. For A5G U49C U87C A94G, the self-cleavage was 1.32. Variant A5C U12C U39A A56G U131C U132C has a self-cleavage of 1.4. U19A A22G A125G showed a self-cleavage of 0.52. Variant A52G A96G A126C A134G has a self-cleavage of 1.1. For A60G A118G A135G, the self-cleavage was 1.22. Work on G7A A24G A69G A111U U131A yielded a self-cleavage of 0.07. With A52G A94U A117G the self-cleavage was 2.27. C16U U43C A126G U132C showed a self-cleavage of 1.45. U12C A23U G28A C35U U49C U108C showed a self-cleavage of 0.05. A47G A52G U72C showed a self-cleavage of 0.26. In the case of G44A A62G U100C, the self-cleavage is reported as 2.07. For C109U U122A A140G, the self-cleavage was 0.44. With A98U A114G U127A A129G the self-cleavage was 0.04. For C6U G28C A36G, the self-cleavage was 2.16. For A22G A59G U72C A91G A114G A118G, the self-cleavage was 1.19. Work on A18G G29C A30U U38C yielded a self-cleavage of 1.27. G14A A68G A111U gave a self-cleavage of 0.12. Work on A11G U19C A23G A89U A92G U132C yielded a self-cleavage of 1.48. Variant A11G U43C A86G has a self-cleavage of 0.35. A30G A33G U70C A117G gave a self-cleavage of 1.57. Variant A64U U102C A117G U120C has a self-cleavage of 2.29. In the case of A18U U127C A129G U130A, the self-cleavage is reported as 0.71. A33G U43C A94C showed a self-cleavage of 0.49. In the case of U9A A30U U108C, the self-cleavage is reported as 0.03. A59G G79A A82U gave a self-cleavage of 0.13. With U57C U97C G136A the self-cleavage was 0.85. Work on A89G A117U U122A U130C yielded a self-cleavage of 0.65. In the case of G53U A59G U72A U87C U122C U131C, the self-cleavage is reported as 0.08. For A23G A78U A91G, the self-cleavage was 0.13. Work on A67G G84C A110U yielded a self-cleavage of 0.22. For A63G A67G U87C U97A G138U, the self-cleavage was 1.32. In the case of C6A A22G A36C, the self-cleavage is reported as 1.03. Variant A51G A110G U131C has a self-cleavage of 0.06. For A5U A60U A89G A114G, the self-cleavage was 0.43. U26A G44U A62G U130C gave a self-cleavage of 0.4. A82G A91G U127C gave a self-cleavage of 0.13. U39A U72A A89G gave a self-cleavage of 0.38. For A59G A90G A95G U97C U122A, the self-cleavage was 0.76. A51G A86G U87A A90U U100C U108C A116G showed a self-cleavage of 0. Work on U2C A4G U100C yielded a self-cleavage of 1.7. Work on A18G U49C A90G yielded a self-cleavage of 0.99. With A5G U103C A116G the self-cleavage was 0.41. In the case of A18U G41A A59U U97C, the self-cleavage is reported as 0.9. With A51G A54C A60G A118U U122C A125G the self-cleavage was 0.39. A92G A96U U120C gave a self-cleavage of 1.24. C34U A95G A118G U132C G136U showed a self-cleavage of 1.05. U2C A78G U132A showed a self-cleavage of 0.45. Work on A30G A94G U102C yielded a self-cleavage of 1.24. Variant U38C A47U A69G has a self-cleavage of 1.36. For U43A A98G U132A, the self-cleavage was 0.49. G7A U19C A55G A59G A69G A140G gave a self-cleavage of 0.63. A11U A13G A91G A140G showed a self-cleavage of 1.58. For A59U A62G G99A, the self-cleavage was 0.56. In the case of A27G U87C U103A, the self-cleavage is reported as 0.08. In the case of A22G U37C A89G, the self-cleavage is reported as 1.45. Work on U9C A36U U49C U102C yielded a self-cleavage of 2.82. Variant U2C A47U A91G A110U has a self-cleavage of 0.21. With A4G G74C A94U the self-cleavage was 0.32. Work on A36U A51G A91G A116U yielded a self-cleavage of 0. U39C A54G U130C gave a self-cleavage of 1.02. A94G A96G U100C gave a self-cleavage of 1.83. With A30G A55G A89G A126G the self-cleavage was 0.89. A78G A117G A125G showed a self-cleavage of 0.1. A13G A52U A111G U124C gave a self-cleavage of 0.04. In the case of A56G A78G A86G, the self-cleavage is reported as 0.31. Work on U38C U49C A66G A68G G74U A111G yielded a self-cleavage of 0.06. A30G U37C U122A A135U showed a self-cleavage of 1.78. A11G A13G C35U A68U showed a self-cleavage of 0.99. A68G A69U U102C gave a self-cleavage of 1.69. C6U A27G C61U gave a self-cleavage of 0.78. Work on A47G A89U A118G U130C yielded a self-cleavage of 0.43. In the case of A66G U70C A129G, the self-cleavage is reported as 0.41. Variant A59U A63G A67G has a self-cleavage of 1.23. Variant A62G A82U U102C A125G has a self-cleavage of 0.08. A78U A92U U127A gave a self-cleavage of 0.6. Variant U102A A116U A129G has a self-cleavage of 0.03. A11U U72C U97C U100A gave a self-cleavage of 0.02. A18G A30G U37G A51U U70C A135U gave a self-cleavage of 0. Work on A22U A30G A36G G41A A91G A111G A116G yielded a self-cleavage of 0.02. Variant U38A A62U A82G has a self-cleavage of 0.65. U37C A78U A95U gave a self-cleavage of 0.33. For A67G A96G A140G, the self-cleavage was 1.71. Variant A18G U19C U72C A94G U127C has a self-cleavage of 0.09. For C35U U43C U49C A117U U131C, the self-cleavage was 0.44. With U38A A62G U87A the self-cleavage was 1.81. A23G A59G A92G gave a self-cleavage of 1.36. With A22U A90G U122C the self-cleavage was 0.82. In the case of U43C A60G A64G A91U A116G U122C, the self-cleavage is reported as 0.58. Work on A4G U38C A129G yielded a self-cleavage of 1.45. In the case of U3C A22G A30G A78G A89C A111G, the self-cleavage is reported as 0.1. With U9C A54G U124C the self-cleavage was 0.44. In the case of U49C A51U U130C, the self-cleavage is reported as 1.06. With U2C U12C A13U A62G A78C A91G the self-cleavage was 0.24. In the case of C16G A23G A24G, the self-cleavage is reported as 0.8. Variant U2C A33G A36G A54G A55G A60G has a self-cleavage of 0.82. In the case of A54G A66G G74A U108C U132C, the self-cleavage is reported as 0.02. Work on U87C U100C U131C yielded a self-cleavage of 2.8. U12A A52G A54U A68G A89G U108C A111G showed a self-cleavage of 0.02. A52G A54G A62U A91C showed a self-cleavage of 0.74. With U9C A60G A69G A92G U102C U103C the self-cleavage was 0.29. G73A G83U A116G showed a self-cleavage of 0.07. U43C A94G A135U showed a self-cleavage of 0.12. In the case of G58U U102C A116G, the self-cleavage is reported as 0.93. In the case of G8A U39C A47G A98U, the self-cleavage is reported as 1.43. With A22U A33G G58U A96G the self-cleavage was 0.36. U9C A23G A27G A89U gave a self-cleavage of 0.78. G41U A82U U130C U132C showed a self-cleavage of 0.1. Variant U39C A89G A94G A114U has a self-cleavage of 0.01. Variant A4G A23G A30G U49A U87C U120C has a self-cleavage of 1.05. A36G A95G U120C gave a self-cleavage of 1.34. With A60G U100A U103G A110G the self-cleavage was 0.04. In the case of G1A A22G A59U A95G U108A U120A, the self-cleavage is reported as 0.03. In the case of A89G C105G U139C, the self-cleavage is reported as 0.06. Work on G58A A60U A69G yielded a self-cleavage of 1.4. With C46U A60G A95C U100C the self-cleavage was 2.35. U39C A96G U97C gave a self-cleavage of 0.82. For U2C A24G A54G A111G U133C, the self-cleavage was 0.03. For U72A U87C A114C, the self-cleavage was 0.03. U12A U19C A59U A140C gave a self-cleavage of 1.11. For U9G A27U A114G A125G, the self-cleavage was 0.17. A23G U122C A126G gave a self-cleavage of 0.98. With C61G A94G A116G the self-cleavage was 0.89. Variant A22G A66G A95G A114G U124C has a self-cleavage of 0.47. Variant A24U A110U A126G has a self-cleavage of 1.08. U38C A62G U70C showed a self-cleavage of 1.16. A67G A82C A86G showed a self-cleavage of 0.19. With U49C A67G U72A A82G the self-cleavage was 0.24. In the case of U19G U49C A69G U87A A111G U122C A135U, the self-cleavage is reported as 0. U19A A23G U37C A64G A126G A129U showed a self-cleavage of 0.57. A59G A68G A82U gave a self-cleavage of 0.21. A47G U120C U130A gave a self-cleavage of 0.07. Work on U39C C71U A94G yielded a self-cleavage of 0.36. A33G C45G A51G U131C showed a self-cleavage of 0.5. A54U A89G A135G gave a self-cleavage of 1.22. With U9C A56G U127C A140G the self-cleavage was 1.27. In the case of U49C A78G A117G U120A, the self-cleavage is reported as 0.23. Variant U19C A23G A69G U139C has a self-cleavage of 0.8. U38C A94G U132C showed a self-cleavage of 1.88. With A55G U72A A92U the self-cleavage was 0.21. With G28A U120A A135G the self-cleavage was 1.64. In the case of U37C A51G A59G A95C, the self-cleavage is reported as 0.85. Work on U72G A86G A116U yielded a self-cleavage of 0.04. In the case of A62G A69G A89G, the self-cleavage is reported as 1.65. In the case of A36C A63G U70C C105A, the self-cleavage is reported as 0.04. In the case of A11G A55G U100C U102A U108C A116G, the self-cleavage is reported as 0. With A60G A118G A126G the self-cleavage was 0.42. Variant A66G G75U C121U has a self-cleavage of 0.2.
